In PubChem BioAssay AID686979 (National Center for Advancing Translational Sciences (NCATS), 2013):
Where “and” joins values, the source holds several entries; their conditions need not be identical. Equal entries are not always repeated. About 50,000 (12%) of roughly 420,000 compounds were called active. Inconclusive means that the source gave no clear call. Such entries were picked first, then a sample of the others. Calls come from the whole dose curve; as a rule, active = well fitted inhibition curve with a large enough effect; inconclusive = small, poorly fitted or top-dose-only effect; inactive = flat fitted curve, though single readings scatter. Where the call is inconclusive, the potency comes from a doubtful curve fit.

Test: qHTS for Inhibitors of human tyrosyl-DNA phosphodiesterase 1 (TDP1): qHTS in cells in presence of CPT; note: nearly all actives have a fitted effect of over 55% in size
Conditions: chicken DT40 Tdp1-/-;hTDP1 cells + 20 nM CPT, ATP luminescence, 48 h; activity change, negative = growth inhibition: at 46.2 µM (top of the series) unless noted
Summary of the method: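 Chicken DT40 Tdp1-/- cells stably complemented with human TDP1 were seeded at 400 cells/well in medium containing 20 nM camptothecin, exposed to pin-transferred compounds, and grown at 37 °C for at least 48 hr. Viability was read as ATP luminescence.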
% is set by controls: 0 for no effect and ±100 for the full control effect; potency is the fitted concentration of half-maximal effect; tags give direction and shape of the fitted curve.

Row | Compound | activity change, negative = growth inhibition | Potency
1 | O=C(Nc1ccc(O)cc1)c1ccc(NC(=O)c2ccco2)cc1 | inactive: -8.54% | 
2 | Cc1onc(-c2ccc(F)cc2F)c1C(=O)Nc1cccc(C(F)(F)F)c1 |  | inconclusive: 16.4 µM [inhibitor, single point]
3 | CC1=C(C(=O)OC2CCCCC2)C(c2ccc(F)cc2)NC(=O)N1 (stereo not drawn) | inactive: 9.88% | 
4 | COc1ccc(N2CSC3=C(C#N)C(c4cc(OC)ccc4OC)CC(=O)N3C2)c(OC)c1 (stereo not drawn) |  | inconclusive: 25.9 µM [inhibitor, single point]
5 | CCOc1ccccc1NC(=O)CN(c1ccc(OC)cc1OC)S(=O)(=O)c1ccccc1[N+](=O)[O-] | inactive: -21.6% | 
6 | CCOC(=O)C1CCN(S(=O)(=O)CCNC(=O)c2cccc(OC)c2)CC1 | inactive: 4.28% | 
7 | COc1ccc2[nH]c(=O)c(CN(C(C)=O)c3ccc(C)c(C)c3)cc2c1 | inactive: -24.7% | 
8 | Cc1nccn1CCCN1C(=O)OC2(CCCCC2)C1(C)O (stereo not drawn) |  | inconclusive: 29.1 µM [inhibitor, single point]
9 | CCc1ccc(NC(=O)Cn2c(=O)oc3cc(S(=O)(=O)N4CCCCCC4)ccc32)cc1 |  | active: 11.6 µM
10 | Cc1ccc2cc(C#N)c(N3CCN(C)CC3)nc2c1 | inactive: -4.78% | 
11 | Cc1ccc(N(CC#N)C(=O)CS(=O)(=O)c2cccc([N+](=O)[O-])c2)cc1 |  | inconclusive: 4.61 µM [inhibitor, full curve]
12 | CCOC(=O)c1c(C)oc2c1c1c(c3ccccc32)OCN(Cc2cccnc2)C1 |  | inconclusive: 18.4 µM [inhibitor, single point]
13 | Nc1ccc(Br)cc1Br | inactive: -20.6% | 
14 | Cc1ncc([N+](=O)[O-])n1CC(=O)Nc1ccccc1 | inactive: 1.67% | 
15 | COc1ccccc1C(=O)Nc1nnc(SCC(=O)Nc2ccc3c(c2)oc2ccccc23)s1 |  | inconclusive: 18.4 µM [inhibitor, single point]
16 | Cc1ccc(-c2cc3ccccc3nc2N)cc1 |  | active: 16.4 µM
17 | COc1ccc(C=Nc2cccc3c(=O)[nH][nH]c(=O)c23)c2ccccc12 |  | inconclusive: 35.5 µM [inhibitor, single point]
18 | COc1ccc(NS(=O)(=O)c2cc(C(=O)N3CCCCCC3)ccc2C)cc1 |  | inconclusive: 5.8 µM [inhibitor, partial curve]
19 | Cc1ncc2c(c1CNC(=O)c1ccc3c(c1)OCO3)CCN(C(=O)C1Cc3ccccc3O1)C2 (stereo not drawn) | inactive: 2.09% [at 9.04 µM] | 
20 | COc1ccc2oc(C(=O)OC(C)C(=O)NCc3ccccc3)c(C)c2c1 (stereo not drawn) |  | inconclusive: 23.1 µM [inhibitor, single point]
21 | CCOc1ccc(NC(=S)N(CCCN2CCCC2)Cc2cccn2Cc2ccc(Cl)cc2)cc1 |  | active: 14.6 µM
22 | CCc1ccc(CNC(=O)c2cc(-c3ccc(Br)s3)nc3ccccc23)cc1 |  | inconclusive: 25.9 µM [inhibitor, single point]
23 | O=C(NCCOc1nc(N2CCOCC2)nc(N2CCOCC2)n1)Nc1ccc(Cl)cc1 | inactive: -25.4% | 
24 | COc1cccc(-c2ccc3c(N)c(C(=O)NCc4ccc(Cl)cc4)sc3n2)c1 |  | inconclusive: 25.9 µM [inhibitor, single point]
25 | COc1ccc(Cl)cc1C(=O)Nc1cc(=O)n(C)c(=O)n1C | inactive: -12.9% | 

Row | Compound | activity change, negative = growth inhibition | Potency
26 | Cc1nc(C)c(-c2csc(Nc3ccc(S(N)(=O)=O)cc3)n2)s1 |  | inconclusive: 29.1 µM [inhibitor, single point]
27 | COc1ccc(OC)c(-c2cc(C(=O)NC(C)c3ccccc3)no2)c1 (stereo not drawn) |  | active: 4.11 µM
28 | O=[N+]([O-])c1ccc2c(c1)C(N1CCOCC1)/C(=C/C1(O)CCCCC1)O2 (stereo not drawn) | inactive: 1.25% | 
29 | Cc1ccc(C)c(S(=O)(=O)C(C#N)c2nc3ccccc3nc2N2CC(C)OC(C)C2)c1 (stereo not drawn) |  | inconclusive: 18.4 µM [inhibitor, single point]
30 | CC(=O)/C=C/c1ccccc1Oc1c(F)c(F)nc(F)c1F |  | inconclusive: 25.9 µM [inhibitor, single point]
31 | CC(=O)OCC1=C(C(=O)OC(C)(C)C)N2C(=O)[C@@H](NC(=O)Cc3ccccc3)[C@H]2SC1 |  | inconclusive: 20.6 µM [inhibitor, single point]
32 | Cc1c(N2CCCC2)cc2c(c1NC(=O)c1ccccc1Cl)C(C)(C)CC2(C)C |  | inconclusive: 23.1 µM [inhibitor, single point]
33 | CCOC(=O)C[C@H]1c2cc(F)ccc2S(=O)(=O)N1C(C)(C)C |  | inconclusive: 22.4 µM [inhibitor, single point] and inconclusive: 29.1 µM [inhibitor, single point]
34 | CC(=O)N/N=C(\N)c1nonc1N | inactive: 4.85% | 
35 | O=[N+]([O-])c1ccc2c(c1)C(N1CCOCC1)/C(=C/COc1ccc(Cl)cc1Cl)O2 (stereo not drawn) |  | inconclusive: 23.1 µM [inhibitor, single point]
36 | CC(C)(Oc1ccc(Cl)cc1)C(=O)NCc1n[nH]c(=O)c2ccccc12 |  | active: 20.6 µM
37 | CC(C)c1ccc(C2=C(O)c3ccccc3C(=O)C2=O)cc1 |  | inconclusive: 29.1 µM [inhibitor, single point]
38 | O=C(Nc1ccccc1)c1cccc(S(=O)(=O)Nc2cccc(F)c2)c1 |  | inconclusive: 4.61 µM [inhibitor, single point]
39 | CCCOc1ccc(C2C(=O)N(C3CCC(C)CC3)CC(=O)N2CCC2=CCCCC2)cc1OC (stereo not drawn) |  | inconclusive: 10.3 µM [inhibitor, single point]
40 | Cc1nc2ccc(F)cc2cc1C(=O)Nc1ccc(Cl)c(Cl)c1 |  | inconclusive: 29.1 µM [inhibitor, single point]
41 | Cc1cccc(N2CCN(C3(c4ccccc4)C(=O)c4ccccc4C3=O)CC2)c1C | inactive: -21.4% | 
42 | Cc1ccc(OCC(=O)N2CCc3ccccc3C2)cc1C |  | inconclusive: 29.1 µM [inhibitor, single point]
43 | CN(Cc1ccccc1)C(=O)c1ccc2c(c1)OCO2 | inactive: 3.54% | 
44 | COc1cc(/C=N/NC(=O)c2ccoc2C)cc(OC)c1OC |  | inconclusive: 35.5 µM [inhibitor, single point]
45 | COc1cccc(C(=O)N(Cc2ccc3c(c2)OCO3)Cc2nc3ccccc3c(=O)[nH]2)c1 |  | inconclusive: 18.4 µM [inhibitor, single point]
46 | CC1CCN(S(=O)(=O)c2ccc(S(=O)(=O)NCC(=O)C(C)(C)C)cc2)CC1 | inactive: 6.77% | 
47 | O=C(CCc1nnc(C2(c3ccc(Cl)cc3)CCC2)o1)N1CCCC1 | inactive: -18.2% | 
48 | CCCCCC1(C)NC(=S)N(c2ccccc2)N1 (stereo not drawn) | inactive: 11.8% | 
49 | Cc1ccc2onc(CC(=O)N(C)c3ccccc3)c2c1 |  | inconclusive: 29.1 µM [inhibitor, single point]
50 | COc1ccc(OCCSc2nnc(CCNC(=O)c3ccc(OC)cc3)n2C)cc1 |  | inconclusive: 29.1 µM [inhibitor, single point]

Row | Compound | activity change, negative = growth inhibition | Potency
51 | COc1cc(OC)c(N(C)S(=O)(=O)c2cccc(C(=O)Nc3nccs3)c2)cc1Cl |  | inconclusive: 23.1 µM [inhibitor, single point]
52 | COc1ccccc1CNC(=O)C1CCCN(S(=O)(=O)c2cccc3cccnc23)C1 (stereo not drawn) |  | inconclusive: 29.1 µM [inhibitor, single point]
53 | Cc1ccc(C)c(CSC2=NN3CCCC(=O)N=C3S2)c1 |  | inconclusive: 16.4 µM [inhibitor, single point]
54 | O=c1cc(-c2cccnc2)oc2c1ccc1ccccc12 |  | inconclusive: 14.6 µM [inhibitor, partial curve]
55 | CCN(CC1CCCO1)C(=O)c1cc(COc2ccc(OC)cc2Cl)on1 (stereo not drawn) | inconclusive: -31.6% [inhibitor] | 
56 | CC(C)CCNC(=O)CCn1c(=S)oc2ccccc21 | inactive: -0.373% | 
57 | O=C(NN=Cc1c(O)ccc2ccccc12)C1CC1 |  | active: 5.8 µM
58 | CN(CC(=O)Nc1ccc(Cl)c(C(F)(F)F)c1)C(=O)/C=C/c1ccco1 |  | active: 18.4 µM
59 | CCC(=O)OCC(=O)Nc1ccc(OC)cc1[N+](=O)[O-] | inactive: 22.2% | 
60 | CC(C(=O)c1ccccc1)[n+]1ccc(Cl)c2ccc(Cl)cc21 (stereo not drawn) |  | inconclusive: 35.5 µM [inhibitor, single point]
61 | CC1CN(c2oc(Cc3cccc4ccccc34)nc2C#N)CC(C)O1 (stereo not drawn) |  | inconclusive: 25.9 µM [inhibitor, single point]
62 | CC(C)Cn1c(N)c(C(=O)COC(=O)c2ccc(O)cc2)c(=O)n(C)c1=O | inactive: -20% | 
63 | C/C(=C\[C@@H](NP(=O)(c1ccccc1)c1ccccc1)c1ccccc1)CO[Si](c1ccccc1)(c1ccccc1)C(C)(C)C |  | inconclusive: 29.1 µM [inhibitor, single point]
64 | O=S(=O)(Nc1nccs1)c1ccc(Cl)cc1 | inconclusive: -31% [inhibitor] | 
65 | NC(=O)C1CCN(C(=O)CN2CCc3ccccc32)CC1 |  | inconclusive: 29.1 µM [inhibitor, single point]
66 | c1ccc(COc2ccc(-c3cc4nc(NCCCn5ccnc5)ccn4n3)cc2)cc1 |  | active: 23.1 µM
67 | Cc1cc(C)cc(Nc2nc3c([nH]2)c(=O)n(C)c(=O)n3C)c1 |  | inconclusive: 18.4 µM [inhibitor, single point]
68 | COc1ccc(-c2ccc(C(=O)NC3CCCCC3)c3occc23)c(C)c1 |  | active: 20.6 µM
69 | CSc1cccc(NC(=O)C2CCCN2S(=O)(=O)c2ccc3c(c2)CCC(=O)N3)c1 (stereo not drawn) | inactive: -21.6% | 
70 | CN(CC(=O)Nc1ccc(Cl)cc1)C(=O)Cn1[nH]c(=O)c2ccccc2c1=O | inactive: 1.75% | 
71 | Cn1c(SCc2ccc(Br)cc2)nc2ccccc2c1=O |  | inconclusive: 23.1 µM [inhibitor, single point]
72 | O=C(/C=C/c1ccccn1)c1ccc(Br)cc1O |  | active: 20.6 µM
73 | CCOCCn1ccc2c(OCC(=O)Nc3ccc(OC)cc3OC)cccc2c1=O | inactive: -22.9% | 
